The other results are listed elsewhere or left out.
System: PF3D7_0420300 AP2 domain 1 (GST-tagged)
Test: gcPBM binding intensity (ln(normalized median fluorescence intensity)); higher = stronger DNA binding
Outline: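 DNA-binding domains from P. falciparum, fused to GST and produced in E. coli, were put on an Agilent 4 × 180k double-stranded probe array for 1 h in 1× PBS holding 1% milk, 0.2 mg/ml BSA, 0.5% salmon testes DNA and 0.03% Triton X-100. Probes were primer-extended, 36 bp long and drawn from intergenic genomic regions, with negative controls included. After Alexa488 anti-GST antibody detection and a 488 nm scan, binding intensity was set as the highest Masliner-normalised natural-log median intensity across replicate spots of either probe orientation.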

Sequence	gcPBM binding intensity (ln)
ATTTATTCATTTGGGTGTACTATTTAAAAAAAACAA [XGTACX_site498]	9.18
TATTTATATTTTAACACACACATATTTATATTTATA [CACACA_site7324]	9.61
TATATTTTTTAAACCACACACAATATAGAGTATAAT [CACACA_site4510]	9.66
TATATATAATTTTATACATGCACATATTATATATAT [TGCATGCA_site1036]	9.26
TATAAATAAAGACACACACACATATAAATAAATATA [CACACA_site7155]	10.1
TTTATATACTATTCAAAGTGATAAATAATATATGAA [TGCATGCA_negctrl_site352]	8.86
AAAAAAAAAAAACATACACACAATAAAATAGGGGTA [CACACA_site2399]	9.99
ATTTATTTATTAAGATGTACTTATTAAAAATAATAA [XGTACX_site7392]	8.76
CCATTAAATACATACACACCCACACCCAAAAAAAAA [CACACA_site4633]	9.81
AAAAAAAAAAATATAACACACAAAAAATTGTATCGA [CACACA_site1144]	9.44
ATATAGTAAAATTATACACACATGAATTTTCCCATA [CACACA_site3113]	9.44
ACAAAATTTACAAAATGTACATATTGTAGATATTGT [XGTACX_site7618]	9.06
ATTATATATACACGCACACACACTTATATATATATA [CACACA_site9093]	10
CATTCATTTATTAATTGTACTTTTAAGGTTAAATAA [XGTACX_site5838]	8.85
TAAAAATATATACATACATGCATACATATATATGTA [TGCATGCA_site774]	9.14
CAAGCCCTTCTGCTTACACACAGTAATTATTGTGTA [CACACA_site2953]	9.49
TAGGAAAAGAAAAGCACACACATAAATAAATATATA [CACACA_site504]	9.91
TAATTTATTATATTTTGTACGTAAAATTATTATTGT [XGTACX_site8155]	9.26
AATATTTATTTTACATGTACTTATTTTTCTTTTAAC [XGTACX_site3631]	9.52

Sequence	gcPBM binding intensity (ln)
AATATATATTTATATTGTACATATATATATATTTCT [XGTACX_site2603]	9.15
TGTATTTAAAATGGTTGTACATAAATAAAAATAAAA [XGTACX_site7771]	9.23
ATTTATTTATTTATATGTACTTATATATGTATTTTC [XGTACX_site6269]	9.45
TATTGAAACGTATAGACACACATATGATATATATAT [CACACA_site3226]	9.42
AAAGTGTTAACCTAATCTTTAGTTTTTAAACAATAT [CACACA_negctrl_site841]	8.98
TTAATTAAATATTATACACACAAAAAAATAACTTTA [CACACA_site6197]	9.47
AAAAAAAAAAAACATACACACAAATATGTACATACA [CACACA_site7807]	9.84
TATATATTAATATATGCATGTACGATTATTATAATA [TGCATGCA_site446]	9.18
AATAAAAATCCACAAGCACACAAATGTACTTATATA [CACACA_site8783]	9.35
TAAATACAAAAATGTACACACATATAAATATTTTTA [CACACA_site7612]	9.42
TTTTTTTTTATATTTAGTACATATATATTATTATAT [XGTACX_site3334]	9.28
ACAAGATGATGGAAATGTACATAAAAAGAATCATAT [XGTACX_site8682]	9.74
AACACTACATAAAACTGTACAATAGTATTTTATTAT [XGTACX_site996]	9.34
ATTATTAAAATGATATGTACGCACATAATATACATA [XGTACX_site3236]	9.23
CTTAGTGTATTTGAATGTACGCATAAATATAATTAT [XGTACX_site2830]	9.19
ATAATATTTTGAAACGGTACACTTTTAAAATACACT [XGTACX_site4423]	9.26
AAAATAAGGAAAAAAAAAAAAAAAAAAAAAAAAAAG [CACACA_negctrl_site1291]	8.95
AAAAAAAAAAAAAATACACACATAAAATAAATAACA [CACACA_site439]	9.81
TTTGGTTATATTTAAAAAAGACTAATGAAAATTAAA [XGTACX_negctrl_site526]	8.88

Sequence	gcPBM binding intensity (ln)
ATATATATATATTACACACACACAAAAAAAATAAAG [CACACA_site118]	10.4
AATTTACAAATATAATGTACATAATTATATATATAT [XGTACX_site278]	9.24
AATAGTAAAAATCACTGTACGTTTATTTTTAAAATG [XGTACX_site1035]	9.22
CCATATACAACCATACGTACATATATATATATATAT [XGTACX_site8193]	9.32
CATACCATACATAAAACACACAAAATTTACAGAATA [CACACA_site7451]	9.8
TAGAAAAACATTACGTGTACCAAACATCCTAGCAAC [XGTACX_site4888]	9.7
ATATTATTTATAGGGTGTACCTTATTATTATAAGAA [XGTACX_site7148]	8.94
TATAATATTATACATAGTACACATCACACATCGCAA [XGTACX_site4650]	9.57
TATATACTTTTATGTACACACCTATAATATGGGTGA [CACACA_site5044]	9.19
TTATACATAAATTTTGTACACACAAAAAAAAAAAAG [CACACA_site8374]	9.53
TTTCAAAAGTAATACTGTACTTATTTTTATGATTTA [XGTACX_site4184]	9.11
GAATTTTTTTAATGTTGTACTTTTTTTTTTTTTTCT [XGTACX_site648]	9.31
ACATATATATATATATATATATATATATTACATTTA [CACACA_negctrl_site627]	9.12
TTTTTGTTAAACAGGGTGCTAATCTGAATTAATATT [GTGCAC_site9908]	9.02
ACATATTTTATTTTTTGTACACATATATTATTTTTT [XGTACX_site6528]	9.73
ATGTATTAAAAAAATTGTACTATAAAATGTAACCGC [XGTACX_site8083]	9.49
AAGGCAAGCACTTAAACATGCATATAATAATATCAT [TGCATGCA_site698]	9.03
ATAATATATATATATGCATGTACATATTTATCTTTA [TGCATGCA_site32]	9.26

Source: the supplement of paper PMC11417369
